{
  "source": "PubChem BioAssay AID886",
  "about": "(National Center for Advancing Translational Sciences (NCATS), 2007)",
  "note": "The campaign covered roughly 73,000 compounds. About 2,500 (3.4%) were called active. The inconclusive results got no clear call from the source; some entries with a clear call stand among them for comparison. Calls come from the whole dose curve; as a rule, active = well fitted inhibition curve with a large enough effect; inconclusive = small, poorly fitted or top-dose-only effect; inactive = no such curve, though single readings can be large or run the other way. Potencies of inconclusive entries are doubtful fits and often do not repeat. % is set by controls: 0 for no effect and ±100 for the full control effect; potency is the fitted concentration of half-maximal effect; tags give direction and shape of the fitted curve.",
  "data": [
    {"target": "3-hydroxyacyl-CoA dehydrogenase type-2 (Homo sapiens) (UniProt Q99714)", "assay": "qHTS Assay for Inhibitors of HADH2 (Hydroxyacyl-Coenzyme A Dehydrogenase, Type II); note: nearly all actives have a fitted effect of over 60% in size", "conditions": "recombinant HADH2, NADH fluorescence, beta-hydroxybutyryl-CoA; activity change, negative = inhibition: at 57.1 µM (top of the series)", "in_short": "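20 nM HADH2 + cpd, 15 min RT; add 1 mM NAD+/90 uM beta-hydroxybutyryl-CoA; kinetic fluorescence 360/450 nm, 4 min. Tris-HCl pH 9.0, 0.01% Tween-20.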", "values": [
      {"smiles": "COc1ccc2c3c([nH]c2c1)[C@@H]1C[C@@H]2[C@@H](C[C@H](O)[C@H](OC)[C@H]2C(=O)O)CN1CC3", "Potency": "inactive"},
      {"smiles": "Cc1c(C(=O)c2no[n+]([O-])c2C(=O)c2cnn(C)c2C)cnn1C", "Potency": "inconclusive: 0.316 µM [inhibitor, full curve]"},
      {"smiles": "CC(C)OC(=O)c1c(N)sc2c1CCCC2", "Potency": "active: 7.94 µM"},
      {"smiles": "COc1ccc(-c2n[nH]c(=S)n2C2CCCCC2)cc1", "Potency": "inconclusive: 5.01 µM [inhibitor, full curve, poor fit]"},
      {"smiles": "CCSc1ncc(Cl)c(C(=O)Nc2ccc(S(=O)(=O)Nc3onc(C)c3C)cc2)n1", "Potency": "inconclusive: 20 µM [inhibitor, single point]"},
      {"smiles": "O=C(O)[C@@H]1CS[C@@]2(CCCN(Cc3ccccc3)C2)N1", "Potency": "inconclusive: 2.51 µM [inhibitor, partial curve]"},
      {"smiles": "CN(C)[C@H]1C(=O)C(C(=O)NCN2CCCC2)=C(O)[C@]2(O)C(=O)C3=C(O)c4c(O)cccc4[C@](C)(O)[C@H]3C[C@H]12", "Potency": "active: 3.98 µM"},
      {"smiles": "Cc1ccccc1NC(=O)CC1SCCNC1=O", "note": "(stereo not drawn)", "Potency": "inconclusive: 3.98 µM [inhibitor, single point]"},
      {"smiles": "O=C1CCCC2=C1C(c1cccs1)n1nc(SCc3ccccc3)nc1N2", "note": "(stereo not drawn)", "Potency": "inconclusive: 39.8 µM [inhibitor, single point]"},
      {"smiles": "FC(F)(F)c1ccccc1-c1nccc(NCCN2CCOCC2)n1", "Potency": "inconclusive: 39.8 µM [inhibitor, single point]"},
      {"smiles": "CN1CCc2c(sc3c2c(=O)n(-c2ccccc2)c2nnc(SCc4ccc(F)cc4)n32)C1", "Potency": "inconclusive: 39.8 µM [inhibitor, single point]"},
      {"smiles": "C=CCn1c(=S)[nH]c2ccc(Br)cc2c1=O", "Potency": "inconclusive: 31.6 µM [inhibitor, single point]"},
      {"smiles": "Cn1c2ccccc2c2ncn(CCCN3CCOCC3)c(=O)c21", "Potency": "inconclusive: 39.8 µM [inhibitor, single point]"},
      {"smiles": "O=C(NCCCN1CCN(c2cccc(Cl)c2)CC1)C1CCC(=O)N1Cc1ccccc1Cl", "note": "(stereo not drawn)", "Potency": "inactive"},
      {"smiles": "Nc1nc(SCC(=O)NCCCN2CCOCC2)nc2sc3c(c12)CCC3", "Potency": "inconclusive: 12.6 µM [inhibitor, partial curve]"},
      {"smiles": "Cn1c(=O)c(=O)n(C)c2cc(S(=O)(=O)N3CCCCCC3)ccc21", "Potency": "inconclusive: 31.6 µM [inhibitor, single point]"},
      {"smiles": "CCN1CCCC1CNC(=O)COc1cc(=O)n(C)c2ccccc12", "note": "(stereo not drawn)", "Potency": "inactive"},
      {"smiles": "CCc1ccccc1Nc1ccc(C(=O)O)cc1N", "Potency": "inactive"},
      {"smiles": "CSc1ccc(/C=N/n2c(C)cc(C)cc2=O)cc1", "activity change, negative = inhibition": "inactive: 11.1% [at 11.4 µM]"},
      {"smiles": "COc1ccc2nc(-c3ccccc3)[nH]c2c1", "Potency": "active: 12.6 µM"},
      {"smiles": "CC1(C)Cc2ccccc2-c2nnc(-c3ccc(O)cc3)n21", "Potency": "inconclusive: 25.1 µM [inhibitor, single point]"},
      {"smiles": "O=C1CCCN1CCCn1cnc2c([nH]c3ccc(F)cc32)c1=O", "Potency": "inconclusive: 31.6 µM [inhibitor, partial curve]"},
      {"smiles": "CCOC(=O)c1ccc(NC(=O)CSCc2ccco2)cc1", "Potency": "inconclusive: 3.16 µM [inhibitor, partial curve]"},
      {"smiles": "CCOC(=O)CC1(C)NC(=O)c2c(C)sc(C(=O)OCC)c2N1", "note": "(stereo not drawn)", "Potency": "inconclusive: 39.8 µM [inhibitor, single point]"},
      {"smiles": "CCOC(=O)Nc1ccc2c(c1)N(C(=O)CN1CCN(C)CC1)c1ccccc1S2", "Potency": "inconclusive: 3.98 µM [inhibitor, single point]"},
      {"smiles": "O=C(CSc1ncccc1-c1nc2ccccc2[nH]1)NCc1ccco1", "Potency": "active: 15.8 µM"},
      {"smiles": "Oc1ccccc1-c1nnc(-c2ccc(C(F)(F)F)cc2)o1", "Potency": "inactive"},
      {"smiles": "COC(=O)C1=NOC2(C=C(Br)C(OC)=C(Br)C2=O)C1", "note": "(stereo not drawn)", "Potency": "active: 1.58 µM"},
      {"smiles": "O=C(NCCN1CCNCC1)c1ccccn1", "Potency": "inconclusive: 39.8 µM [inhibitor, single point]"},
      {"smiles": "CCSc1nnc(NC(=O)C2Cc3ccccc3CN2C(=O)c2ccco2)s1", "note": "(stereo not drawn)", "Potency": "inconclusive: 39.8 µM [inhibitor, single point]"},
      {"smiles": "Cn1c(CSc2nc3ccc(Br)cc3[nH]2)nc2ccccc21", "Potency": "inactive"},
      {"smiles": "COC(=O)c1cccc(-n2nnnc2SCC(=O)Nc2nc3c(s2)CCCC3)c1", "Potency": "inconclusive: 39.8 µM [inhibitor, single point]"},
      {"smiles": "COc1ccc(N/C(N)=N/c2nc(CSc3ccc(C)cc3)cc(=O)[nH]2)cc1", "Potency": "inactive"},
      {"smiles": "CCN1C(=O)[C@H]2[C@H]3[C@H](O)[C@H](O)C/C(=N/NC(=O)OCc4ccccc4)[C@H]3CC[C@@H]2C1=O", "activity change, negative = inhibition": "inactive: 1.14% [at 11.4 µM]"},
      {"smiles": "O=C(COC(=O)C1c2ccccc2Oc2ccccc21)Nc1ccc2c(c1)OCO2", "Potency": "inconclusive: 39.8 µM [inhibitor, single point]"},
      {"smiles": "c1ccc(-c2nnc3ccc(N4CCC5(CC4)OCCO5)nn23)cc1", "Potency": "inactive"},
      {"smiles": "CSc1oc(-c2ccco2)nc1S(=O)(=O)c1ccc(Br)cc1", "Potency": "inconclusive: 31.6 µM [inhibitor, single point]"},
      {"smiles": "COc1cccc(S(=O)(=O)Nc2ccc(C(=O)N3CCOCC3)cc2)c1", "Potency": "inactive"},
      {"smiles": "Cc1ccc(C(=O)CSc2nc3cc(S(=O)(=O)N4CCOCC4)ccc3o2)cc1", "Potency": "inconclusive: 2 µM [inhibitor, full curve]"},
      {"smiles": "COc1ccc(C2C(CC(=O)O)=C(O)C(=O)N2c2ccccc2)cc1", "note": "(stereo not drawn)", "Potency": "inconclusive: 39.8 µM [inhibitor, single point]"},
      {"smiles": "O=c1cc(N2CCOCC2)[nH]c(=O)n1Cc1ccc(F)cc1", "Potency": "inconclusive: 15.8 µM [inhibitor, partial curve]"},
      {"smiles": "COc1cccc(-c2cc(NCc3ccccc3)ncn2)c1", "Potency": "inactive"},
      {"smiles": "O=c1[nH]c2c(s1)C=Nc1ccccc1N2", "Potency": "inconclusive: 31.6 µM [inhibitor, single point]"},
      {"smiles": "Cc1ccc(C)c(-c2nc3ccc(N)cc3[nH]2)c1", "Potency": "active: 15.8 µM"},
      {"smiles": "COc1ccc2[nH]c(=O)c(-c3noc(-c4ccccc4)n3)cc2c1", "Potency": "inactive"},
      {"smiles": "O=c1c(-c2ccc(O)cc2)coc2cc(O)ccc12", "Potency": "active: 31.6 µM"},
      {"smiles": "CCCc1cc(=O)oc2cc(C)c(CN3CCCC3)c(O)c12", "Potency": "active: 25.1 µM"},
      {"smiles": "Cc1ccccc1OCC(=O)Nc1cccc(NC(=O)c2ccco2)c1", "Potency": "inconclusive: 6.31 µM [inhibitor, single point]"},
      {"smiles": "Cc1cccc(-n2ncc3c(N4CCc5ccccc54)ncnc32)c1", "Potency": "active: 3.16 µM"},
      {"smiles": "O=c1c(-c2ccccc2)coc2c(CN3CCCC3)c(O)ccc12", "Potency": "active: 31.6 µM"},
      {"smiles": "O=C1CCc2cc(S(=O)(=O)N3CCC(C(=O)NCc4ccccn4)CC3)ccc2N1", "Potency": "inactive"},
      {"smiles": "c1ccc2c(c1)[nH]c1c(N3CCCC3)ncnc12", "Potency": "inconclusive: 7.94 µM [inhibitor, single point]"},
      {"smiles": "COCCn1c(=O)[nH]c2cc(C(=O)NCCN3CCN(c4ccc(OC)cc4)CC3)ccc2c1=O", "Potency": "inconclusive: 20 µM [inhibitor, single point]"},
      {"smiles": "COc1ccccc1NC(=O)C(C)NS(=O)(=O)c1ccccc1", "note": "(stereo not drawn)", "Potency": "inconclusive: 25.1 µM [inhibitor, single point]"},
      {"smiles": "COc1nc(-c2ccc(Cl)cc2)ccc1-c1noc(-c2ccco2)n1", "Potency": "inconclusive: 31.6 µM [inhibitor, partial curve]"},
      {"smiles": "O=C1c2ccccc2C(=O)N1c1nc(-c2cccs2)cs1", "Potency": "inconclusive: 31.6 µM [inhibitor, single point]"},
      {"smiles": "COc1c(C)c2c(c(O)c1C/C=C(\\C)CCC(=O)O)C(=O)OC2", "Potency": "inconclusive: 39.8 µM [inhibitor, single point]"},
      {"smiles": "Cc1c(C(=O)N2CCN(C(=O)c3ccco3)CC2)sc2nc(-c3ccc(F)cc3)cn12", "Potency": "inconclusive: 31.6 µM [inhibitor, single point]"},
      {"smiles": "CCc1nnc(NC(=O)CSc2nnc(-c3cccnc3)n2CCc2ccccc2)s1", "Potency": "inconclusive: 39.8 µM [inhibitor, single point]"},
      {"smiles": "CCOC(=O)C1=C(C)NC(C)=C(C(=O)OCC)C1C(=O)OCC(=O)N1CCc2ccccc2C1", "Potency": "inactive"},
      {"smiles": "CN1CCN(c2ncc3nc(-c4cc(F)cc(F)c4)c(=O)n(-c4ccccc4)c3n2)CC1", "Potency": "active: 25.1 µM"},
      {"smiles": "CCOC(=O)c1cnn2c(C)cc(-c3ccccc3)nc12", "Potency": "active: 25.1 µM"},
      {"smiles": "CC(C)CNS(=O)(=O)c1ccc(CCC(=O)NCC2CCCO2)cc1", "note": "(stereo not drawn)", "Potency": "inconclusive: 1.26 µM [inhibitor, partial curve]"},
      {"smiles": "CCOc1ccccc1Nc1ccc(N)cc1S(=O)(=O)O", "Potency": "inconclusive: 3.98 µM [inhibitor, partial curve]"},
      {"smiles": "COC(=O)c1ccccc1NC(=O)c1ccc(COc2ccccc2)o1", "Potency": "inconclusive: 31.6 µM [inhibitor, single point]"},
      {"smiles": "CCCCCSc1nc2c(c(=O)[nH]c(=O)n2C)n1CC", "Potency": "inconclusive: 25.1 µM [inhibitor, single point]"},
      {"smiles": "C=CCNC(=O)c1cc([N+](=O)[O-])cc2c(=O)[nH]c(Nc3ccc(Cl)c(Cl)c3)nc12", "Potency": "inconclusive: 39.8 µM [inhibitor, single point]"},
      {"smiles": "CCOn1c(=O)c(-c2cc3ccccc3o2)[n+]([O-])c2ccccc21", "Potency": "inactive"},
      {"smiles": "O=C(NCCNC(=O)C(c1ccccc1)c1ccccc1)c1ccco1", "Potency": "inactive"},
      {"smiles": "COC(=O)c1[nH]c2cc(OC)ccc2c1N", "Potency": "active: 31.6 µM"},
      {"smiles": "CCOc1ccc(N2C(=O)c3cccnc3C2Nc2ccc(C)cc2)cc1", "note": "(stereo not drawn)", "Potency": "inactive"},
      {"smiles": "OCC(CO)(CO)N=Cc1c(O)ccc2ccccc12", "Potency": "inconclusive: 15.8 µM [inhibitor, partial curve, poor fit]"},
      {"smiles": "O=C(CSc1ccccc1)Nc1ccc(S(=O)(=O)NCC2CCCO2)cc1", "note": "(stereo not drawn)", "Potency": "inconclusive: 31.6 µM [inhibitor, single point]"}
    ]}
  ]
}
